According to the supplement of paper PMC3722116:
Growth of fresh clinical P. falciparum isolates by hypoxanthine uptake over 42 h; for most isolates 1.6-1,647 nM mefloquine, 0.044-87 nM artesunate, 10-10,256 nM chloroquine, 2.4-236 nM lumefantrine. EC50, lower = more sensitive; slope from the same fit, higher = steeper. No active / inactive call. Fits with a coefficient of variation above 100% are not listed here; 15-28% of fits exceed 15%. Isolates are numbered anew.

Tests used:
[1] = compound: T1, CCCCN(CCCC)CC(O)c1cc(Cl)cc2c1-c1ccc(Cl)cc1/C2=C/c1ccc(Cl)cc1 [lumefantrine]
Protocol: (§1)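 Hypoxanthine uptake by fresh isolates, duplicate serial dilutions, 24 h of drug plus 18 h after the label; sigmoid fit per isolate.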

[2] = compound: T2, CCN(CC)CCCC(C)Nc1ccnc2cc(Cl)ccc12 [chloroquine]
Protocol: as §1

[3] = compound: T3, OC(c1cc(C(F)(F)F)nc2c(C(F)(F)F)cccc12)C1CCCCN1 [mefloquine]
Protocol: as §1

[4] = compound: T1, lumefantrine; assay: slope of the dose-response curve (dimensionless); higher = steeper concentration-effect curve
Protocol: as §1

[5] = compound: T2, chloroquine; assay: as above
Protocol: as §1

[6] = compound: T3, mefloquine; assay: as above
Protocol: as §1

[7] = compound: T4, C[C@H]1[C@H](OC(=O)CCC(=O)O)O[C@@H]2O[C@@]3(C)CC[C@H]4[C@H](C)CC[C@@H]1[C@@]24OO3 [artesunate]
Protocol: as §1

[8] = compound: T4, artesunate; assay: slope of the dose-response curve (dimensionless); higher = steeper concentration-effect curve
Protocol: as §1

| Test System | EC50 of parasite growth [1] [µg/mL] | EC50 of parasite growth [2] [µg/mL] | EC50 of parasite growth [3] [µg/mL] | slope [4] | slope [5] | slope [6] | EC50 of parasite growth [7] [µg/mL] | slope [8] |
| --- | --- | --- | --- | --- | --- | --- | --- | --- |
| Plasmodium falciparum isolate 342 (pfmdr1 allele: 86N, 1042N, pfmdr1 copies: 1) | 0.0486 | 0.0945 | 0.0514 | 3.56 | 1.91 | 3.28 |  |  |
| Plasmodium falciparum isolate 336 (pfmdr1 allele: 86N, 1042N, pfmdr1 copies: 2) | 0.0166 | 0.0866 | 0.0386 | 2.43 | 9.87 | 3.02 |  |  |
| Plasmodium falciparum isolate 384 (pfmdr1 allele: 86N, 1042N, pfmdr1 copies: 1) | 0.00784 | 0.14 | 0.0204 | 2.04 | 4.98 | 2.37 |  |  |
| Plasmodium falciparum isolate 217 (pfmdr1 allele: 86N, 1042N, pfmdr1 copies: 2) | 0.028 | 0.0748 | 0.0704 | 1.78 | 2.8 | 3.04 |  |  |
| Plasmodium falciparum isolate 151 (pfmdr1 allele: 86N, 1042N, pfmdr1 copies: 1) | 0.00826 | 0.172 | 0.023 | 2.03 | 4.99 | 2.89 |  |  |
| Plasmodium falciparum isolate 372 (pfmdr1 allele: 86N, 1042N, pfmdr1 copies: 1) | 0.0286 | 0.0716 | 0.0507 | 2.17 | 3.55 | 3.96 |  |  |
| Plasmodium falciparum isolate 26 (pfmdr1 allele: 86N, 1042N, pfmdr1 copies: 2) | 0.0369 | 0.0435 | 0.0462 | 3.91 | 3.6 | 3.72 |  |  |
| Plasmodium falciparum isolate 310 (pfmdr1 allele: 1042D, pfmdr1 copies: 1) | 0.00239 | 0.103 | 0.00658 | 1.81 | 3.23 | 1.63 |  |  |
| Plasmodium falciparum isolate 486 (pfmdr1 allele: 1042D, pfmdr1 copies: 1) | 0.00928 | 0.473 | 0.0286 | 3.29 | 9.18 | 3.22 |  |  |
| Plasmodium falciparum isolate 330 (pfmdr1 allele: 86N, 1042N, pfmdr1 copies: 1) | 0.0198 | 0.044 | 0.0303 | 1.43 | 2.62 | 2.32 |  |  |
| Plasmodium falciparum isolate 348 (pfmdr1 allele: 86N, 1042N, pfmdr1 copies: 1) | 0.023 | 0.0829 | 0.0435 | 1.76 | 15.2 | 1.82 |  |  |
| Plasmodium falciparum isolate 222 (pfmdr1 allele: 86N, 1042N, pfmdr1 copies: 2) | 0.00298 | 0.0798 | 0.00502 | 2.05 | 5.97 | 1.62 |  |  |
| Plasmodium falciparum isolate 78 (pfmdr1 allele: 86N, 1042N, pfmdr1 copies: 2) | 0.0497 | 0.186 | 0.0786 | 1.44 | 5.44 | 2.2 |  |  |
| Plasmodium falciparum isolate 452 (pfmdr1 allele: 86N, 1042N, pfmdr1 copies: 3) | 0.0272 | 0.0765 | 0.023 | 3.19 | 3.02 | 2.43 |  |  |
| Plasmodium falciparum isolate 331 (pfmdr1 allele: 86N, 1042N, pfmdr1 copies: 1) | 0.0096 | 0.068 | 0.0224 | 1.65 | 5.14 | 1.85 |  |  |
| Plasmodium falciparum isolate 52 (pfmdr1 allele: 86N, 1042N, pfmdr1 copies: 2) | 0.0575 |  | 0.0594 | 2.7 |  | 5.41 | 0.0012 | 6.08 |
| Plasmodium falciparum isolate 395 (pfmdr1 allele: 86N, 1042N, pfmdr1 copies: 2) | 0.078 | 0.0397 | 0.0656 | 3.29 | 2.14 | 2.97 |  |  |
| Plasmodium falciparum isolate 437 (pfmdr1 allele: 86N, 1042N, pfmdr1 copies: 2) | 0.0467 |  | 0.083 | 3.6 |  | 3.9 | 0.00111 | 9.68 |
| Plasmodium falciparum isolate 51 (pfmdr1 allele: 86N, 1042N, pfmdr1 copies: 2) | 0.0705 |  | 0.071 | 2.49 |  | 6.21 | 0.00115 | 8.41 |

| Test System | EC50 of parasite growth [1] [µg/mL] | EC50 of parasite growth [2] [µg/mL] | EC50 of parasite growth [3] [µg/mL] | slope [4] | slope [5] | slope [6] | EC50 of parasite growth [7] [µg/mL] | slope [8] |
| --- | --- | --- | --- | --- | --- | --- | --- | --- |
| Plasmodium falciparum isolate 56 (pfmdr1 allele: 86N, 1042N, pfmdr1 copies: 1) | 0.054 | 0.164 |  | 10 | 4.63 |  |  |  |
| Plasmodium falciparum isolate 234 (pfmdr1 allele: 86Y, pfmdr1 copies: 1) | 0.0487 | 0.082 | 0.0551 | 1.77 | 4.43 | 3.3 |  |  |
| Plasmodium falciparum isolate 112 (pfmdr1 allele: 86N, 1042N, pfmdr1 copies: 1) | 0.0127 |  | 0.0155 | 2.63 |  | 1.96 | 0.000864 | 3.72 |
| Plasmodium falciparum isolate 175 (pfmdr1 allele: 86N, 1042N, pfmdr1 copies: 1) | 0.0205 | 0.127 | 0.0293 | 2.59 | 3.55 | 3.2 |  |  |
| Plasmodium falciparum isolate 474 (pfmdr1 allele: 86N, 1042N, pfmdr1 copies: 1) | 0.0035 |  | 0.0059 | 4.11 |  | 1.55 | 0.000327 | 5.63 |
| Plasmodium falciparum isolate 248 (pfmdr1 allele: 86N, 1042N, pfmdr1 copies: 1) | 0.0442 | 0.122 | 0.0384 | 1.11 | 3.01 | 3.39 |  |  |
| Plasmodium falciparum isolate 192 (pfmdr1 allele: 86N, 1042N, pfmdr1 copies: 2) | 0.0523 | 0.11 | 0.0955 | 8.2 | 4.07 | 5 |  |  |
| Plasmodium falciparum isolate 131 (pfmdr1 allele: 86N, 1042N, pfmdr1 copies: 2) | 0.0632 |  | 0.085 | 3.14 |  | 3.4 | 0.00962 | 6.88 |
| Plasmodium falciparum isolate 79 (pfmdr1 allele: 1042D, pfmdr1 copies: 1) | 0.0679 |  | 0.0161 | 3.51 |  | 2.47 | 0.0031 | 4.85 |
| Plasmodium falciparum isolate 146 (pfmdr1 allele: 86N, 1042N, pfmdr1 copies: 3) | 0.0435 | 0.0296 | 0.0594 | 2.78 | 1.81 | 2.83 |  |  |
| Plasmodium falciparum isolate 422 (pfmdr1 allele: 86N, 1042N, pfmdr1 copies: 3) | 0.0618 | 0.0924 | 0.0914 | 10.7 | 4.75 | 3.79 |  |  |
| Plasmodium falciparum isolate 470 (pfmdr1 allele: 86N, 1042N, pfmdr1 copies: 1) | 0.0592 | 0.136 | 0.0474 | 0.974 | 3.04 | 7.2 |  |  |
| Plasmodium falciparum isolate 178 (pfmdr1 allele: 86N, 1042N, pfmdr1 copies: 2) | 0.0587 | 0.146 |  | 2.9 | 3.02 |  |  |  |
| Plasmodium falciparum isolate 190 (pfmdr1 allele: 86N, 1042N, pfmdr1 copies: 1) | 0.0202 |  | 0.00572 | 1.38 |  | 1.48 | 0.00104 | 3.57 |
| Plasmodium falciparum isolate 451 (pfmdr1 allele: 86N, 1042N, pfmdr1 copies: 2) | 0.0416 | 0.0437 | 0.0376 | 0.68 | 2.77 | 2.59 |  |  |
| Plasmodium falciparum isolate 177 (pfmdr1 allele: 86N, 1042N, pfmdr1 copies: 1) | 0.0605 | 0.0987 | 0.053 | 1.15 | 3.75 | 2.82 |  |  |
| Plasmodium falciparum isolate 212 (pfmdr1 allele: 86N, 1042N, pfmdr1 copies: 3) | 0.0365 |  | 0.054 | 4.88 |  | 9.47 | 0.00112 | 1.95 |
| Plasmodium falciparum isolate 298 (pfmdr1 allele: 86N, 1042N, pfmdr1 copies: 1) | 0.0428 |  | 0.0319 | 1.92 |  | 2.24 | 0.00172 | 6.41 |
| Plasmodium falciparum isolate 99 (pfmdr1 allele: 86N, 1042N, pfmdr1 copies: 1) | 0.0403 |  | 0.0366 | 1.6 |  | 2.2 | 0.00123 | 4.13 |
